In all, about 45,000 compounds went through this assay and about 65 (0.1%) were called active. Calls come from the whole dose curve; as a rule, active = well fitted activation curve with a large enough effect; inconclusive = small, poorly fitted or top-dose-only effect; inactive = no such curve, though single readings can be large or run the other way. This is one part of the list.
target: Galactocerebrosidase (Homo sapiens) (UniProt P54803); test: A Novel Cell-Based Assay to Identify Small Molecules for B -Galactocerebrosidase; conditions: 145M-Twi-hGALC-G270D cells (Twitcher mouse brain line with human GALC G270D), HMU-beta-Gal fluorescence, 48 h; series mostly up to 57.5 µM; activation: at the top concentration; note: 0% is about no effect; nearly all actives have a fitted effect of over 65% in size
Procedure, shortened: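 Brain-derived Twitcher mouse 145M-Twi cells stably expressing human GALC-G270D or wild-type GALC, treated live, then residual GALC activity read by fluorescence of HMU-b-Gal substrate (0.1 mM final) in citrate-phosphate buffer pH 5.2 with sodium taurocholate. Signal increase indicates enhancement.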

UniProt P54803, sequence (P54803 whole entry, looked up): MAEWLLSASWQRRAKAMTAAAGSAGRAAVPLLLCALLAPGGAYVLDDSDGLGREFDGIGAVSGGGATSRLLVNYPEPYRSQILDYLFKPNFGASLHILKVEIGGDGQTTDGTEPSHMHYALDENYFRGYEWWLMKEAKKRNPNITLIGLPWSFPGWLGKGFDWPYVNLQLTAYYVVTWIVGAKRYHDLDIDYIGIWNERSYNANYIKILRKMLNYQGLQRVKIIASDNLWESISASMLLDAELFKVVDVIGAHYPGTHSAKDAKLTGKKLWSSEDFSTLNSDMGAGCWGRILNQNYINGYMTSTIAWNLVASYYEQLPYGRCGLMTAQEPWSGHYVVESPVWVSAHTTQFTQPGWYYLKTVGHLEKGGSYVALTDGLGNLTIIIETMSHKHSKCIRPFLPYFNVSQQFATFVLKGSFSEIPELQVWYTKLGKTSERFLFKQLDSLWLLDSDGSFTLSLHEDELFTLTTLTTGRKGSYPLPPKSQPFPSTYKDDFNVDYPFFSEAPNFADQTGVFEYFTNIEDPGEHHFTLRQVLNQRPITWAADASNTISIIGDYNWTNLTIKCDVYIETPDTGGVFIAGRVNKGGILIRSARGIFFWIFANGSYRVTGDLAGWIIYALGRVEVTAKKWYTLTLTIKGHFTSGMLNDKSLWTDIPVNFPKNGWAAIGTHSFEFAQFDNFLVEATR

activation, inactive:
CCOc1ccc(-c2c(C)nn3c(C)c(C(=O)NCC(C)c4ccccc4)cnc23)cc1OCC (stereo not given) -22.2%
Cc1ccc(-n2nc(CO)c(C(=O)NCCc3ccccc3)n2)cc1C 5.66%
COc1cc(-c2noc(-c3nnn(-c4ccc(Cl)cc4)c3C)n2)cc(OC)c1OC -15%
CCc1ccc(N2C(=O)CS(=O)(=O)C23C(=O)N(Cc2ccccc2)c2ccccc23)cc1 (stereo not given) -20%
CC(=O)c1ccc(NC(=O)C2CCCN(S(=O)(=O)c3cn(C)cn3)C2)cc1 (stereo not given) -0.728%
CCc1cccc(C)c1Nc1c(-c2ccc(N3CCOCC3)cc2)nc2ncccn12 -3.79%
CCCc1nn(C)c2c(=O)[nH]c(-c3cc(S(=O)(=O)N4CCN(C)CC4)ccc3OCC)nc12 -12.1%
O=C(Cn1c(=O)n(-c2ccc(F)cc2)c(=O)c2sccc21)Nc1cccc(C(F)(F)F)c1 -8.32%
Cc1cc(C)cc(OCC(=O)Nc2cccc(-c3nc4ccccc4[nH]3)c2)c1 -11.8%
COc1ccc(-n2nc3c(c2NC(=O)C(=O)N2CCN(C)CC2)CSC3)cc1 -7.73%
Cc1c2cnn(CC(=O)Nc3ccc(F)cc3F)c(=O)c2c(C)n1Cc1cccc(Cl)c1 -14%
Cc1ccc(NC(=O)C2CCCN(c3nnc(C)c4c(C)n(-c5ccccc5)nc34)C2)cc1Cl (stereo not given) -4.26%
CCOC(=O)c1cc2c(=O)n3ccccc3nc2n(Cc2ccco2)c1=NC(=O)c1ccccc1OC -20.6%
CC(C)NC(=O)c1cc2c(Cl)nc3ccccc3c2s1 -24.6%
CCC(=O)N1CCc2cc(S(=O)(=O)CCC(=O)NCc3ccc(F)cc3)ccc21 -14%
COc1ccc(Cn2c(C(=O)O)c(CNCCc3ccccc3Cl)c3ccc(C)cc32)cc1 -2.23%
COc1cccc(CNC(=O)Cn2c(=O)oc3cc(S(=O)(=O)N4CCC(C)CC4)ccc32)c1 -15.8%
Cc1ccc(-n2nc3c(=O)n(C(C)C(=O)O)nc(C)c3c2C)cc1 (stereo not given) 2.71%
Cc1ccc(Cl)cc1NC(=O)Cn1c(=O)n(CCC(=O)N2CCc3ccccc3C2)c(=O)c2ccccc21 0.733%
CCOc1ccc(NC(=O)Cn2cc(C(=O)c3ccc(C)c(C)c3)c(=O)c3cc(F)ccc32)cc1 -8.15%
Cc1ccc(CNC(=O)c2ccc3c(c2)N(Cc2cccc(Cl)c2)C(=O)CS3)cc1 -0.41%
Cc1cc(O)c(C(=O)c2cnc3c(c2)COc2ccccc2-3)cc1Cl -11.2%
CCN(c1ccc(C)cc1C)S(=O)(=O)c1nnc(NC(=O)CC(C)C)s1 -15.9%
COc1cc(NC(=O)CSc2nc3nc(C)c(Cc4ccccc4)c(C)n3n2)cc(OC)c1 -5.83%
CCOc1ccc2nc(N3CCCC(C(=O)NCCc4ccc(SC)cc4)C3)sc2c1 (stereo not given) -12.5%
